# Data from the supplement of paper PMC8728848.
# Some of the results follow.
# B1: CGL (Crenomytilus grayanus), H2FH31 (protein)
# chain: MTTFLIKHKASGKFLHPYGGSSNPANNTKLVLHSDIHERMYFQFDVVDERWGYIKHVASGKIVHPYGGQANPPNETNMVLHQDRHDRALFAMDFFNDNIMHKGGKYIHPKGGSPNPPNNTETVIHGDKHAAMEFIFVSPKNKDKRVLVYA
# Key:
# Experiment in all cases: glycan array binding signal (z-score within array); higher = stronger binding
# Conditions in all cases: glycan notation: IUPAC condensed, linker removed
# Fuc(a1-2)Gal = target: Fuc(a1-2)Gal
# In short: (§1)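 Arrays were curated from the Consortium for Functional Glycomics database, 3228 in total, and kept only where the protein sequence was available. Binding is expressed as a within-array Z-score. This score was averaged across arrays of the same protein sequence at different concentrations or buffers and across linkers, and negative values can be read as non-binding.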
# Fuc(a1-2)Gal(b1-3)GalNAc = target: Fuc(a1-2)Gal(b1-3)GalNAc
# In short: as §1
# [1] = target: Fuc(a1-2)Gal(b1-3)GalNAc(a1-3)[Fuc(a1-2)]Gal(b1-4)Glc
# In short: as §1
# [2] = target: Fuc(a1-2)Gal(b1-3)GalNAc(a1-3)[Fuc(a1-2)]Gal(b1-4)GlcNAc
# In short: as §1
# [3] = target: Fuc(a1-2)Gal(b1-3)GalNAc(b1-3)Gal
# In short: as §1
# [4] = target: Fuc(a1-2)Gal(b1-3)GalNAc(b1-3)Gal(a1-4)Gal(b1-4)Glc
# In short: as §1
# [5] = target: Fuc(a1-2)Gal(b1-3)GalNAc(b1-4)[Neu5Ac(a2-3)]Gal(b1-4)Glc
# In short: as §1
# Fuc(a1-2)Gal(b1-3)GlcNAc = target: Fuc(a1-2)Gal(b1-3)GlcNAc
# In short: as §1
# [6] = target: Fuc(a1-2)Gal(b1-3)GlcNAc(b1-2)Man(a1-3)[Fuc(a1-2)Gal(b1-3)GlcNAc(b1-2)Man(a1-6)]Man(b1-4)GlcNAc(b1-4)GlcNAc
# In short: as §1
# [7] = target: Fuc(a1-2)Gal(b1-3)GlcNAc(b1-2)Man(a1-3)[Fuc(a1-2)Gal(b1-3)GlcNAc(b1-2)Man(a1-6)]Man(b1-4)GlcNAc(b1-4)[Fuc(a1-6)]GlcNAc
# In short: as §1
# [8] = target: Fuc(a1-2)Gal(b1-3)GlcNAc(b1-3)Gal(b1-4)Glc
# In short: as §1
# [9] = target: Fuc(a1-2)Gal(b1-3)GlcNAc(b1-3)GalNAc
# In short: as §1
# [10] = target: Fuc(a1-2)Gal(b1-3)GlcNAc(b1-3)[Fuc(a1-2)Gal(b1-3)GlcNAc(b1-6)]GalNAc
# In short: as §1
# [11] = target: Fuc(a1-2)Gal(b1-3)GlcNAc(b1-3)[Gal(b1-4)GlcNAc(b1-6)]Gal(b1-4)Glc
# In short: as §1
# [12] = target: Fuc(a1-2)Gal(b1-3)GlcNAc(b1-3)[Neu5Ac(a2-6)Gal(b1-4)GlcNAc(b1-6)]Gal(b1-4)Glc
# In short: as §1
# [13] = target: Fuc(a1-2)Gal(b1-3)GlcNAc6S
# In short: as §1
# [14] = target: Fuc(a1-2)Gal(b1-3)[Fuc(a1-4)]GlcNAc
# In short: as §1
# [15] = target: Fuc(a1-2)Gal(b1-3)[Fuc(a1-4)]GlcNAc(b1-2)Man(a1-3)[Fuc(a1-2)Gal(b1-3)[Fuc(a1-4)]GlcNAc(b1-2)Man(a1-3)]Man(b1-4)GlcNAc(b1-4)GlcNAc
# In short: as §1
# [16] = target: Fuc(a1-2)Gal(b1-3)[Fuc(a1-4)]GlcNAc(b1-2)Man(a1-3)[Fuc(a1-2)Gal(b1-3)[Fuc(a1-4)]GlcNAc(b1-2)Man(a1-6)]Man(b1-4)GlcNAc(b1-4)[Fuc(a1-6)]GlcNAc(b1-4)[Fuc(a1-6)]GlcNAc
# In short: as §1
# [17] = target: Fuc(a1-2)Gal(b1-3)[Fuc(a1-4)]GlcNAc(b1-3)[Fuc(a1-3)[Gal(b1-4)]GlcNAc(b1-6)]Gal(b1-4)Glc
# In short: as §1
# [18] = target: Fuc(a1-2)Gal(b1-3)[Fuc(a1-4)]GlcNAc(b1-3)[Gal(b1-4)GlcNAc(b1-6)]Gal(b1-4)Glc
# In short: as §1
# [19] = target: Fuc(a1-2)Gal(b1-4)Fuc(a1-3)]GlcNAc(b1-2)Man(a1-3)[Fuc(a1-2)Gal(b1-4)[Fuc(a1-3)]GlcNAc(b1-2)Man(a1-6)]Man(b1-4)GlcNAc(b1-4)GlcNAc
# In short: as §1
# Fuc(a1-2)Gal(b1-4)Glc = target: Fuc(a1-2)Gal(b1-4)Glc
# In short: as §1
# Fuc(a1-2)Gal(b1-4)Glc6S = target: Fuc(a1-2)Gal(b1-4)Glc6S
# In short: as §1
# Fuc(a1-2)Gal(b1-4)GlcNAc = target: Fuc(a1-2)Gal(b1-4)GlcNAc
# In short: as §1
# [20] = target: Fuc(a1-2)Gal(b1-4)GlcNAc(b1-2)Man
# In short: as §1
# [21] = target: Fuc(a1-2)Gal(b1-4)GlcNAc(b1-2)Man(a1-3)[Fuc(a1-2)Gal(b1-4)GlcNAc(b1-2)Man(a1-6)]Man(b1-4)GlcNAc(b1-4)GlcNAc
# In short: as §1
# [22] = target: Fuc(a1-2)Gal(b1-4)GlcNAc(b1-2)Man(a1-3)[Fuc(a1-2)Gal(b1-4)GlcNAc(b1-2)Man(a1-6)]Man(b1-4)GlcNAc(b1-4)[Fuc(a1-6)]GlcNAc
# In short: as §1
# [23] = target: Fuc(a1-2)Gal(b1-4)GlcNAc(b1-2)[Fuc(a1-2)Gal(b1-4)GlcNAc(b1-4)]Man(a1-3)[Fuc(a1-2)Gal(b1-4)GlcNAc(b1-2)Man(a1-6)]Man(b1-4)GlcNAc(b1-4)GlcNAc
# In short: as §1
# [24] = target: Fuc(a1-2)Gal(b1-4)GlcNAc(b1-3)Gal(b1-4)GlcNAc
# In short: as §1
# [25] = target: Fuc(a1-2)Gal(b1-4)GlcNAc(b1-3)Gal(b1-4)GlcNAc(b1-2)Man(a1-3)[Fuc(a1-2)Gal(b1-4)GlcNAc(b1-3)Gal(b1-4)GlcNAc(b1-2)Man(a1-6)]Man(b1-4)GlcNAc(b1-4)GlcNAc
# In short: as §1
# [26] = target: Fuc(a1-2)Gal(b1-4)GlcNAc(b1-3)Gal(b1-4)GlcNAc(b1-3)Gal(b1-4)GlcNAc
# In short: as §1
# [27] = target: Fuc(a1-2)Gal(b1-4)GlcNAc(b1-3)GalNAc
# In short: as §1
# [28] = target: Fuc(a1-2)Gal(b1-4)GlcNAc(b1-3)[Fuc(a1-2)Gal(b1-4)GlcNAc(b1-6)]GalNAc
# In short: as §1
# [29] = target: Fuc(a1-2)Gal(b1-4)GlcNAc(b1-3)[Fuc(a1-3)[Gal(b1-4)]GlcNAc(b1-6)]Gal(b1-4)Glc
# In short: as §1
# [30] = target: Fuc(a1-2)Gal(b1-4)GlcNAc(b1-6)GalNAc
# In short: as §1
# [31] = target: Fuc(a1-2)Gal(b1-4)GlcNAc6S
# In short: as §1
# [32] = target: Fuc(a1-2)Gal(b1-4)[Fuc(a1-3)]GlcNAc
# In short: as §1
# [33] = target: Fuc(a1-2)Gal(b1-4)[Fuc(a1-3)]GlcNAc(b1-2)Man(a1-3)[Fuc(a1-2)Gal(b1-4)[Fuc(a1-3)]GlcNAc(b1-2)Man(a1-6)]Man(b1-4)GlcNAc(b1-4)[Fuc(a1-6)]GlcNAc
# In short: as §1
# [34] = target: Fuc(a1-2)Gal(b1-4)[Fuc(a1-3)]GlcNAc(b1-2)[Fuc(a1-2)Gal(b1-4)[Fuc(a1-3)]GlcNAc(b1-4)]Man(a1-3)[Fuc(a1-2)Gal(b1-4)[Fuc(a1-3)]GlcNAc(b1-2)Man(a1-6)]Man(b1-4)GlcNAc(b1-4)GlcNAc
# In short: as §1
# [35] = target: Fuc(a1-2)Gal(b1-4)[Fuc(a1-3)]GlcNAc(b1-3)Gal(b1-4)[Fuc(a1-3)]GlcNAc
# In short: as §1
# [36] = target: Fuc(a1-2)Gal(b1-4)[Fuc(a1-3)]GlcNAc(b1-3)Gal(b1-4)[Fuc(a1-3)]GlcNAc(b1-3)Gal(b1-4)[Fuc(a1-3)]GlcNAc
# In short: as §1
# [37] = target: Fuc(a1-2)Gal(b1-4)[Fuc(a1-3)]GlcNAc(b1-3)GalNAc
# In short: as §1
# [38] = target: Fuc(a1-2)Gal(b1-4)[Fuc(a1-3)]GlcNAc(b1-3)[Neu5Ac(a2-6)Gal(b1-4)GlcNAc(b1-6)]Gal(b1-4)Glc
# In short: as §1
# [39] = target: Fuc(a1-2)Gal3S(b1-4)GlcNAc
# In short: as §1
binder,measurement,setting,value
B1,glycan array binding signal (z-score),Fuc(a1-2)Gal,0.532
same,glycan array binding signal (z-score),Fuc(a1-2)Gal(b1-3)GalNAc,-0.364
same,glycan array binding signal (z-score),[1],-0.387
same,glycan array binding signal (z-score),[2],-0.342
same,glycan array binding signal (z-score),[3],-0.345
same,glycan array binding signal (z-score),[4],-0.364
same,glycan array binding signal (z-score),[5],-0.326
same,glycan array binding signal (z-score),Fuc(a1-2)Gal(b1-3)GlcNAc,-0.382
same,glycan array binding signal (z-score),[6],-0.195
same,glycan array binding signal (z-score),[7],-0.334
same,glycan array binding signal (z-score),[8],-0.358
same,glycan array binding signal (z-score),[9],-0.419
same,glycan array binding signal (z-score),[10],0.622
same,glycan array binding signal (z-score),[11],-0.054
same,glycan array binding signal (z-score),[12],-0.433
same,glycan array binding signal (z-score),[13],-0.43
same,glycan array binding signal (z-score),[14],-0.372
same,glycan array binding signal (z-score),[15],-0.309
same,glycan array binding signal (z-score),[16],-0.416
same,glycan array binding signal (z-score),[17],-0.386
same,glycan array binding signal (z-score),[18],-0.302
same,glycan array binding signal (z-score),[19],-0.343
same,glycan array binding signal (z-score),Fuc(a1-2)Gal(b1-4)Glc,-0.372
same,glycan array binding signal (z-score),Fuc(a1-2)Gal(b1-4)Glc6S,-0.242
same,glycan array binding signal (z-score),Fuc(a1-2)Gal(b1-4)GlcNAc,-0.283
same,glycan array binding signal (z-score),[20],-0.309
same,glycan array binding signal (z-score),[21],-0.063
same,glycan array binding signal (z-score),[22],-0.357
same,glycan array binding signal (z-score),[23],-0.249
same,glycan array binding signal (z-score),[24],-0.106
same,glycan array binding signal (z-score),[25],0.855
same,glycan array binding signal (z-score),[26],-0.056
same,glycan array binding signal (z-score),[27],-0.281
same,glycan array binding signal (z-score),[28],-0.067
same,glycan array binding signal (z-score),[29],-0.371
same,glycan array binding signal (z-score),[30],0.218
same,glycan array binding signal (z-score),[31],-0.242
same,glycan array binding signal (z-score),[32],-0.391
same,glycan array binding signal (z-score),[33],-0.302
same,glycan array binding signal (z-score),[34],-0.274
same,glycan array binding signal (z-score),[35],-0.409
same,glycan array binding signal (z-score),[36],-0.344
same,glycan array binding signal (z-score),[37],-0.375
same,glycan array binding signal (z-score),[38],-0.372
same,glycan array binding signal (z-score),[39],-0.399
